Test results reported in PubChem BioAssay AID2147 (National Center for Advancing Translational Sciences (NCATS), 2009).
Values joined by “and” are separate entries in the source; they are usually repeats but may differ in a detail not shown here. Equal entries are not always repeated. Screen size: about 230,000 compounds; about 3,600 (1.6%) were called active. Inconclusive results, whose numbers are uncertain, are shown with a selection of clear calls. Calls follow the shape of the dose curve; as a rule, active = well fitted inhibition curve with a large enough effect (not every such curve was filed as active); inconclusive = small, poorly fitted or top-dose-only effect, or another doubt; inactive = no such curve, though single readings can be large or run the other way. Potencies of inconclusive entries are doubtful fits and often do not repeat.
Also: nearly all actives have a fitted effect of over 50% in size.
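For activity change, negative = inhibition in this document: 0% = wells with enzyme and -100% = buffer wells without enzyme.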
Potency is read from the fitted curve at half-maximal effect; tags tell the direction and shape of the fitted curve.

Each molecule was assayed against Lysine-specific demethylase 4E (Homo sapiens) (UniProt B2RXH2) (assay: qHTS Assay for Inhibitors of Human Jumonji Domain Containing 2E (JMJD2E)). Conditions: JMJD2E catalytic domain, FDH-coupled NADH fluorescence (FDH is formaldehyde dehydrogenase); series mostly up to 57.1 µM; activity change, negative = inhibition: at the top concentration.
UniProt B2RXH2, sequence (B2RXH2 whole entry, looked up, the tested form may be a part): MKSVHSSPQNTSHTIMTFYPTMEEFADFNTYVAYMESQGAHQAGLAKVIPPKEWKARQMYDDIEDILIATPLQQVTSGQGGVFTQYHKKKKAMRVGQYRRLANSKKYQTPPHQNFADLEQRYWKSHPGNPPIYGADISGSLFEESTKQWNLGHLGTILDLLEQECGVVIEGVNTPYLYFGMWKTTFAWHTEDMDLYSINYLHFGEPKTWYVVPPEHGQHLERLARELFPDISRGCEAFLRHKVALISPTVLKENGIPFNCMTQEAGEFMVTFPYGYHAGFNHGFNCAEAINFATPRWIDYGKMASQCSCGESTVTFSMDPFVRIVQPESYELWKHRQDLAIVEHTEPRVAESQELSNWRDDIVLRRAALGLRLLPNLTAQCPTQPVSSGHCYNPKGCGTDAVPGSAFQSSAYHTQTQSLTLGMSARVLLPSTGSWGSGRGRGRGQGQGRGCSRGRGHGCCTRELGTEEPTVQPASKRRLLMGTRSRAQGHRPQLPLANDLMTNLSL
In the case of Cc1ccc2sc(-c3ccc(NC(=O)/C=C\C(=O)O)cc3)nc2c1, the Potency is reported as inconclusive: 35.5 µM [inhibitor, single point]. For O=C(O)c1cccc(CN2C(=O)S/C(=C/c3cccc([N+](=O)[O-])c3)C2=O)c1, the “activity change, negative = inhibition” value was inactive: -5.51%. For CCN(Cc1ccncc1)Cc1cn(C)nc1-c1ccc(Oc2ccccc2)cc1, the Potency was inconclusive: 12.6 µM [inhibitor, partial curve]. With O=c1[nH]cnc2nc(-c3ccccc3)c(-c3ccccc3)nc12 the Potency was active: 3.16 µM. For CC(OC(=O)c1cc(=O)[nH]c2ccccc12)C(=O)c1ccccc1 (stereo not drawn), the Potency was inconclusive: 7.94 µM [inhibitor, partial curve]. For COc1ccc(NS(=O)(=O)c2ccc3c(c2)Cc2ccccc2-3)cn1, the “activity change, negative = inhibition” value was inactive: -11.1%. With COc1cc2c3nnc(-c4ccccc4)c-3cn(Cc3ccccc3F)c2cc1OC the Potency was active: 3.55 µM. In the case of O=C(c1ccccc1)c1c[nH]c(C(=O)NCc2cccnc2)c1, the “activity change, negative = inhibition” value is reported as inactive: 8%. With Cc1ccc(C)n1-c1cccc(N)c1 the Potency was inconclusive: 28.2 µM [inhibitor, single point]. For COCCNC(=O)c1c[nH]n2c(=O)cc(C3CCN(C(=O)OC(C)(C)C)CC3)nc12, the Potency was inconclusive: 28.2 µM [inhibitor, partial curve]. With COc1ccc(N2CCN(C(=O)c3ccc(C(C)(C)C)cc3)CC2)cc1 the Potency was inconclusive: 12.6 µM [inhibitor, partial curve]. O=C(Cc1nn[nH]n1)c1ccccc1O was tested, and the “activity change, negative = inhibition” value was inactive: -26.6%. For COCC(=O)N(Cc1cc2cc(OC)ccc2[nH]c1=O)c1ccccc1, the Potency was inconclusive: 28.2 µM [inhibitor, partial curve]. CC(C)=CCC1=C(O)c2ccccc2C(=O)C1=O was tested, and the Potency was inconclusive: 31.6 µM [inhibitor, single point] and inconclusive: 25.1 µM [inhibitor, single point]. For C1=CC2c3ccccc3NC(c3ccncc3)C2C1 (stereo not drawn), the Potency was inconclusive: 14.1 µM [inhibitor, partial curve]. For CN1CCN(S(=O)(=O)c2ccc(NC(=S)NC(=O)C3CCCCC3)cc2)CC1, the “activity change, negative = inhibition” value was inactive: -4.58%. For CCCCNc1ncnc2c1cnn2-c1ccccc1, the Potency was inconclusive: 28.2 µM [inhibitor, single point]. With CC(=O)Nc1sc(NC(=O)c2ccc(C)cc2)nc1-c1cccs1 the Potency was inconclusive: 39.8 µM [inhibitor, single point]. With Cc1ccc(S(=O)(=O)N(C)c2ccc(OCC(=O)Nc3cccc(-n4cnnn4)c3C)cc2)cc1 the “activity change, negative = inhibition” value was inactive: -1.21%. In the case of CCS(=O)(=O)N1CCN(Cc2ccncc2)CC1, the Potency is reported as inconclusive: 25.1 µM [inhibitor, single point]. With COC(=O)/C=C1\C(=O)N(c2nc3ccccc3s2)C(=S)N1c1ccc(F)cc1 the “activity change, negative = inhibition” value was inactive: 6.61%. For CCc1nc(NCCN)c(C#N)c2c1CSC(C)(C)C2, the Potency was inconclusive: 20 µM [inhibitor, partial curve]. With COC(=O)c1c(NC(=O)CCc2ccc(C)o2)sc(C)c1C the Potency was inconclusive: 39.8 µM [inhibitor, single point]. In the case of Cc1ccccc1-n1c(=O)c(C#N)cc2c(=O)n3ccccc3nc21, the Potency is reported as inconclusive: 11.2 µM [inhibitor, partial curve]. COc1ccc2cc(CCNC(=O)c3ccc(Br)o3)c(=O)[nH]c2c1 was tested, and the “activity change, negative = inhibition” value was inactive: -23.9%. For O=C(N/N=C\c1ccc([N+](=O)[O-])o1)c1cncc(Br)c1, the “activity change, negative = inhibition” value was inactive: -0.591%. In the case of C(=N\n1cnnc1)/c1nc2ccccc2[nH]1, the Potency is reported as inconclusive: 3.55 µM [inhibitor, full curve]. For Cc1cccc(N2CCN(C(=O)C34CC5CC(CC(C5)C3)C4)CC2)c1C, the “activity change, negative = inhibition” value was inactive: 0.222%. For O=C(O)c1ccc(/C=N/N2CCN(C3c4ccccc4-c4ccccc43)CC2)cc1, the Potency was inconclusive: 35.5 µM [inhibitor, single point]. c1cc2c3c(c1)c1c(n3CCNC2)CCCC1 was tested, and the Potency was inconclusive: 28.2 µM [inhibitor, partial curve, poor fit]. For CN(C)CCOCCOc1ccc(Cl)cc1C(C)(C)C, the Potency was inconclusive: 28.2 µM [inhibitor, single point]. CCC1=NN(C(=O)c2cccc(Br)c2)C(O)(c2ccc(Br)cc2)C1 (stereo not drawn) was tested, and the “activity change, negative = inhibition” value was inactive: -8.27%. With CN(C)C(=O)c1ccc(NC(=O)c2cc(-n3cnnc3)ccc2Cl)cc1 the Potency was inconclusive: 39.8 µM [inhibitor, single point]. With O=C(CSc1ccc(-c2ccccn2)nn1)c1ccccc1 the Potency was inconclusive: 39.8 µM [inhibitor, single point]. O=C(NC1CCCCC1)C1CCCN(S(=O)(=O)c2cccc3cccnc23)C1 (stereo not drawn) was tested, and the “activity change, negative = inhibition” value was inactive: 6.87%. In the case of C/C(=N\NC(=S)NC1CCCCC1)c1ccccc1, the “activity change, negative = inhibition” value is reported as inactive: 5.19%. With COc1ccc(CCN=C2SCC(=O)N2C)cc1OC the Potency was inconclusive: 8.91 µM [inhibitor, single point]. In the case of CCOc1ccccc1-c1nn2c(Cc3ccccc3)nnc2s1, the Potency is reported as inconclusive: 28.2 µM [inhibitor, partial curve]. With C#Cc1ccc([C@H]2C=C(C(=O)N3CCN(Cc4ccc5c(c4)OCO5)CC3)O[C@@H](OCc3ccc(CO)cc3)C2)cc1 the Potency was inconclusive: 39.8 µM [inhibitor, single point]. For C=CC[n+]1c(-c2ccc(C)cc2)csc1Nc1ccc(NC(C)=O)cc1, the “activity change, negative = inhibition” value was inactive: -16.8%. In the case of O=C(NCc1ccccn1)c1cc(-c2ccccc2)nc2ccccc12, the Potency is reported as inconclusive: 39.8 µM [inhibitor, single point]. For CC(/C=C/c1ccco1)=N\NC(=O)c1cc(Cl)ccc1O, the Potency was inconclusive: 25.1 µM [inhibitor, single point]. In the case of Cc1ccc(OCCNC(=O)/C=C/c2ccco2)cc1C, the “activity change, negative = inhibition” value is reported as inactive: -2.9%. For COC(=O)CCC(=O)OC1(C)C(=O)C=C2C=C(C3CC3)N(C(CO)CO)C=C2C1=O (stereo not drawn), the Potency was inconclusive: 35.5 µM [inhibitor, single point]. C=CCc1c(OC)ccc2ccc(=O)oc12 was tested, and the Potency was inconclusive: 31.6 µM [inhibitor, partial curve]. With Cc1ccc2[nH]c3c(N4CCCCCC4)ncnc3c2c1 the Potency was inconclusive: 31.6 µM [inhibitor, single point]. For Fc1ccc(-c2cnc(-c3cccs3)o2)cc1, the Potency was inconclusive: 25.1 µM [inhibitor, partial curve]. In the case of CCOC(=O)c1c(NC(=O)CCC(=O)O)sc2c1CCCCC2, the Potency is reported as inconclusive: 5.62 µM [inhibitor, single point]. CCc1cc2c3c(c1)C(C)CC(C)(C)N3C(=O)C2=O (stereo not drawn) was tested, and the Potency was inconclusive: 35.5 µM [inhibitor, single point]. For CCOC(=O)C1CCN(CC(=O)N2C(C)CCCC2C)CC1 (stereo not drawn), the Potency was inconclusive: 39.8 µM [inhibitor, single point]. For Cc1sc(NC(=O)C2CC=CCC2C(=O)O)c(C(=O)OC(C)C)c1C (stereo not drawn), the Potency was inconclusive: 31.6 µM [inhibitor, single point]. CCc1ccccc1NC(=S)N(CCCN(C)C)Cc1cc2cc3c(cc2[nH]c1=O)OCO3 was tested, and the Potency was inconclusive: 28.2 µM [inhibitor, partial curve]. With O=C(Oc1cccc(NC(=O)c2cccs2)c1)c1cccc(S(=O)(=O)N2CCCC2)c1 the Potency was inconclusive: 39.8 µM [inhibitor, single point]. In the case of Cc1ccc(C)n1-c1sc2c(c1C(=O)O)CCCC2, the “activity change, negative = inhibition” value is reported as inactive: -29.9%. COc1ccc(-n2nc3cc(C)c(N)c(Br)c3n2)cc1 was tested, and the Potency was inconclusive: 11.2 µM [inhibitor, partial curve]. In the case of COc1ccc2[nH]c(=O)c(C(c3nnnn3C3CCCC3)N(C)C3CCCCC3)cc2c1 (stereo not drawn), the Potency is reported as inconclusive: 25.1 µM [inhibitor, single point]. For Cc1ccc(NS(=O)(=O)c2cccc(C(=O)N/N=C/c3c(C)nn(-c4ccccc4)c3N3CCCC3)c2)c(C)c1, the Potency was inconclusive: 35.5 µM [inhibitor, single point]. In the case of Cc1ccc(CNC(=O)CCNS(=O)(=O)c2ccc3c(c2)c(=O)n(C)c(=O)n3C)cc1, the “activity change, negative = inhibition” value is reported as inactive: -11.2%. In the case of CCOC(=O)c1c(NC(=O)CNC2CCCc3ccccc32)sc(C(N)=O)c1C (stereo not drawn), the Potency is reported as inconclusive: 39.8 µM [inhibitor, single point]. CN1CCc2c(OCC(=O)N3CCCc4ccccc43)cccc2C1=O was tested, and the “activity change, negative = inhibition” value was inactive: 3.04%. CC(=O)N1CC=CC1(C)C(=O)NCc1cc(F)cc(C(F)(F)F)c1 (stereo not drawn) was tested, and the Potency was “inactive”. For Cc1cc(NC(=O)CCC(=O)N(CC(=O)NC2CCCC2)Cc2ccc3c(c2)OCO3)no1, the “activity change, negative = inhibition” value was inactive: -17.7%. With Cc1oc(-c2ccc3c(c2)OCCO3)cc1C(=O)O the Potency was inconclusive: 31.6 µM [inhibitor, partial curve]. COc1cccc(/C=N\NC(=O)C2C(=O)NCC2c2ccccc2)c1O (stereo not drawn) was tested, and the Potency was active: 28.2 µM. For CCC(Sc1nc2ccc(N)cc2s1)C(=O)Nc1nccs1 (stereo not drawn), the “activity change, negative = inhibition” value was inactive: 2.8%. In the case of Brc1ccccc1C1CC(c2ccccc2)=Nc2ccccc2N1 (stereo not drawn), the Potency is reported as inconclusive: 31.6 µM [inhibitor, single point]. For COc1ccc2c(Cl)c(-c3nnc(SCC(=O)c4ccccc4)n3C)sc2c1, the “activity change, negative = inhibition” value was inactive: 0.0439%. With COC(=O)c1cc(-c2ccc(OC)c(OC)c2)n[nH]1 the “activity change, negative = inhibition” value was inactive: 4.25%. In the case of CC(C)CC(=O)NC(=S)NNC(=O)c1ccc([N+](=O)[O-])cc1, the “activity change, negative = inhibition” value is reported as inactive: 8.09%. For CS(=O)(=O)n1nc(C(=O)N2CCOCC2)nc1N, the Potency was inconclusive: 39.8 µM [inhibitor, single point]. In the case of CCOC(=O)c1c(NC(=O)CSc2ncnc3ccccc23)sc(C)c1C, the “activity change, negative = inhibition” value is reported as inactive: 6.8%. For COc1ccc(CCNC(=O)c2cc3c(C)nccc3[nH]c2=O)cc1OC, the Potency was inconclusive: 3.55 µM [inhibitor, single point]. For CN(C)c1ccc(CNC(=O)C2(C)C=CCN2C(=O)c2ccccc2)cc1 (stereo not drawn), the Potency was inconclusive: 28.2 µM [inhibitor, single point].
